Measurements from PMC4336329 (PLoS ONE, 2015).
Screen size: about 310,000 compounds; about 2,200 (0.71%) showed an effect of 50% or more. The effect is printed as a negative number. Some of the results follow.

These molecules were tested against human ether-à-go-go-related gene (hERG) potassium channel (human, UniProt Q12809) (assay: primary screen, population patch clamp on CHO cells stably expressing hERG).
human ether-à-go-go-related gene (hERG) potassium channel, sequence (Q12809 whole entry, looked up): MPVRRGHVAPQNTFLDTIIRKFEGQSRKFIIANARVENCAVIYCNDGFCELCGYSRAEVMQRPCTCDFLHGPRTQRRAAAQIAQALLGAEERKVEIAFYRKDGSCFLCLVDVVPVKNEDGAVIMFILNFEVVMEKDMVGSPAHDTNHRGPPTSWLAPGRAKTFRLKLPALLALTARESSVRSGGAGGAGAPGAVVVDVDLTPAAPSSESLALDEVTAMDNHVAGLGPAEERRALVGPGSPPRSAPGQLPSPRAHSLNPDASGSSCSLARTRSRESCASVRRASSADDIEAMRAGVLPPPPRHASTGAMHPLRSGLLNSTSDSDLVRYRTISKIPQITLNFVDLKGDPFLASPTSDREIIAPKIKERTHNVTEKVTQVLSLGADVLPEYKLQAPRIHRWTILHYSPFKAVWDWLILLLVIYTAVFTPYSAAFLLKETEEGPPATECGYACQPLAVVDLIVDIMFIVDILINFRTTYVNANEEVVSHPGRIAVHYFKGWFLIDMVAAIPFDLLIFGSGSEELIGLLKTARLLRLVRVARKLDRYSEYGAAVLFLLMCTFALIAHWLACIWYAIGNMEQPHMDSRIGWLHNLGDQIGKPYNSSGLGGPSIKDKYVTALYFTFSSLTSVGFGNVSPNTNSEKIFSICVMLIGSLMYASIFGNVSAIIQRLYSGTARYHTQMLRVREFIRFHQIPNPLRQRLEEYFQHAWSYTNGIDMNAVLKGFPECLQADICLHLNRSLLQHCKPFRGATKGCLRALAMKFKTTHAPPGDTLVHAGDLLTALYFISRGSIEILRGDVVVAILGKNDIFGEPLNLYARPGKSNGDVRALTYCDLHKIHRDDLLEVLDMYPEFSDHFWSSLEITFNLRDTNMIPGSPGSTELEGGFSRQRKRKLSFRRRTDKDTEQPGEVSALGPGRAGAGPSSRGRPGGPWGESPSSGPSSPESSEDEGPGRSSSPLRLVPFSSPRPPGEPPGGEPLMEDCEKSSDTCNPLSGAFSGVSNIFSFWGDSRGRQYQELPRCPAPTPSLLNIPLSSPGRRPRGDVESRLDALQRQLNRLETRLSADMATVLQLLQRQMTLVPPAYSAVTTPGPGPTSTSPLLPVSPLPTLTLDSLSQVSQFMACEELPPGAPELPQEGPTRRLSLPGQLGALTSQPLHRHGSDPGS

Row | SMILES | hERG current change (%, negative = inhibition) at 1uM
1 | O=C(NC1CCCCC1)C1CC(=O)N(c2cccc([N+](=O)[O-])c2)C1 (stereo not shown) | 10.7%
2 | CCNc1nc(-c2cc(C)n(Cc3ccco3)c2C)cs1 | 7.49%
3 | Cc1ccc(/C=N/N2CCN(C3c4ccccc4-c4ccccc43)CC2)o1 | 12.6%
4 | Cc1ccc(NC(=O)Cn2cnc3c(oc4nc5c(cc43)COC(C)(C)C5)c2=O)cc1 | 9.64%
5 | CN(CCc1ccccn1)C(=O)c1ccc(OC2CCN(Cc3ccccn3)CC2)cc1 | 11.3%
6 | O=C(CCCCCN1C(=O)CCC1=O)Nc1ccc2c(c1)OCO2 | 14.8%
7 | O=C(NNC(=S)Nc1ccc(F)cc1)[C@H]1C[C@@H]1c1ccccc1 | 13.2%
8 | O=C(Nc1nccs1)C1C2CC3OC(=O)C1C3C2 (stereo not shown) | 13.7%
9 | O=C1CCc2cc(S(=O)(=O)N3CCCC3C(=O)N3CCN(c4ccccc4F)CC3)ccc2N1 (stereo not shown) | 6.96%
10 | Cc1cc(NC(=O)Nc2ccc(C)c(C)c2)no1 | 5.77%
11 | CCC(C)C(NC(=O)CCCNC(=O)CCC(=O)OC1O[C@H]2OC3(C)CC[C@H]4[C@H](C)CCC(C1C)C24OO3)C(=O)O (stereo partly shown) | 12%
12 | c1ccc(Sc2ccccn2)cc1 | 12.3%
13 | c1ccc(-c2ccccc2-c2nc(-c3ccncc3)no2)cc1 | 12.8%
14 | Cc1ccc(S(=O)(=O)NC(=O)Nc2ccc(N(C)C)cc2)cc1 | 9.53%
15 | O=C(NCCc1ccccc1)C(=O)NCC1OCCCN1S(=O)(=O)c1cc(F)ccc1F (stereo not shown) | 6.06%
16 | Cn1nc(C(C)(C)C)cc1C(=O)NCc1ccc2c(c1)OCO2 | 11.8%
17 | NC(=O)c1ccccc1OC1CCC1 | 11.9%
18 | NC(=O)c1cc(Cc2ccccc2)sc1NC(=O)c1ccco1 | 0.586%
19 | Nc1nc(-c2ccc(-c3ccccc3)cc2)cs1 | 16.1%
20 | COc1ccc(CN2CCc3c([nH]c4ccccc34)C2)cc1Br | -0.401%

Row | SMILES | hERG current change (%, negative = inhibition) at 1uM
21 | O=C(CC1CCCC1)NCCS(=O)(=O)N1CCN(c2ccc(F)cc2)CC1 | 5.7%
22 | Cc1ccccc1C1c2[nH]c3ccccc3c2CCN1Cc1cccn1-c1ncccn1 (stereo not shown) | -4.04%
23 | Nc1ccc(S(=O)(=O)N2CCCC2)cc1 | -2.91%
24 | O=C(Nc1ccc2c(c1)OCCO2)c1cc(-c2ccccc2)nc2ccccc12 | 5.52%
25 | C/C=C(\C)c1nnc(NC(=O)C(C)C)s1 | 3.13%
26 | O=C(/C=C1\SC(=O)N(CC(=O)Nc2ccc(Cl)cc2)C1=O)Nc1ccc(F)cc1 | 5.22%
27 | Cc1cc(C)cc(NCc2cc3c(cc2[N+](=O)[O-])OCO3)c1 | -1.39%
28 | COCc1cc(=O)[nH]c(SCCS(=O)(=O)c2ccc(C)cc2)n1 | 8.95%
29 | CCN(CCNC(=O)Cn1cc2c(n1)CCCC2)c1ccccc1 | 0.546%
30 | COc1ccc(C(=O)Nc2cccc3nc(C)ccc23)cc1OC | 13.3%
31 | Cc1cc(C)n(CC(=O)NNC(=O)CC(C)c2ccccc2)n1 (stereo not shown) | 5.7%
32 | COc1ccc([N+](=O)[O-])cc1NCc1cccc([N+](=O)[O-])c1 | -21%
33 | O=C(Cn1ncc2c([nH]c3ccccc32)c1=O)Nc1ccc(F)cc1F | 16.6%
34 | Cc1ccccc1N1CCN(CCCN2C(=O)CC(=C(c3ccccc3)c3ccccc3)C2=O)CC1 | 3.79%
35 | CC(C)N(Cc1nc(-c2ccccc2)no1)C(=O)c1ccc(Cl)cc1 | 3.43%
36 | O=C1CN2C(=Nc3ccc(Cl)cc3C2c2ccccc2)CN1 (stereo not shown) | 10.9%
37 | CC1(C)NC(=O)NC2(C)NC(=O)NC(C)(C)C12 (stereo not shown) | 4.28%
38 | COCCN(Cc1cccs1)S(=O)(=O)c1ccc(-c2ccc(=O)[nH]n2)s1 | -18.6%
39 | O=C(Nc1ccnn1C1CCN(C(=O)Cc2cccc(Cl)c2)CC1)C1CC1 | 8.98%
40 | CC(C)(C)SC(C(=O)N1CCOCC1)c1ccc(Br)cc1 (stereo not shown) | -0.285%

Row | SMILES | hERG current change (%, negative = inhibition) at 1uM
41 | Nc1nonc1C(=O)NCCN=Cc1ccccc1O | 14.5%
42 | Clc1ccc(-c2ccccc2)cn1 | 9.29%
43 | CC(/C=C/C=C/c1ccccc1)=N/NC(=O)CNc1ccccc1C | 4.85%
44 | Cc1ccc(Nc2c(-c3ccccn3)nc3cccc(C)n23)cc1 | 4.48%
45 | CC1=C(n2nnc([N+](=O)[O-])n2)C(c2cccnc2)C(C#N)=C(N)O1 (stereo not shown) | 5.88%
46 | COc1cccc(Nc2nc(CC(C)=O)ns2)c1 | 18.8%
47 | CCOC(=O)c1ccc(-c2ccc(C(=O)Nc3cccnc3)o2)cc1 | 15.4%
48 | CC(=O)Nc1ccc(NC(=O)c2ccccc2Nc2ccccc2)cc1 | 13.7%
49 | Cc1ccc(S(=O)(=O)N(CC(=O)NN=C2CCN(C)CC2)c2ccc(F)cc2)cc1 | 4.57%
50 | CCOC(=O)N1CCN(C(=O)Cc2ccsc2)CC1 | 9.83%
51 | Cc1cc(Oc2ccc(=O)n(C)n2)nc(SCC(N)=O)n1 | 7.36%
52 | CC1C(=O)N(Cc2ccccc2F)c2ccccc2N1C(=O)c1c(F)cccc1F (stereo not shown) | 11.6%
53 | COc1cc(NC(=O)c2ccc(COCC(F)(F)F)cc2)cc(OC)c1OC | 10.7%
54 | Cc1nn(-c2nnc(C)c(=O)[nH]2)c(C)c1SCC(=O)Nc1ccc(F)cc1 | 10.1%
55 | CCc1nnc(NC(=O)Cc2ccc(OC)cc2)s1 | 7.59%
56 | CN(C)c1cnn(-c2ccccc2)c(=O)c1Cl | 14.6%
57 | CC1CCN(C(=O)CCCOc2ccc(Cl)cc2)CC1 | 9.09%
58 | Cc1nc2nc[nH]n2c(=O)c1CCC(C)C | 6.33%
